Source: PubChem BioAssay AID485294 (National Center for Advancing Translational Sciences (NCATS), 2010)
About 150 (0.041%) of roughly 370,000 compounds were called active. Inconclusive means that the source gave no clear call. Such entries were picked first, then a sample of the others. Calls follow the shape of the dose curve; as a rule, active = well fitted inhibition curve with a large enough effect; inconclusive = small, poorly fitted or top-dose-only effect; inactive = flat fitted curve, though single readings scatter. No potency is given beside an inconclusive call; the fits are too rough.

The molecules below were run against Beta-lactamase (Escherichia coli (strain K12)) (UniProt P00811) (assay: qHTS Inhibitors of AmpC Beta-Lactamase (assay with detergent)). Details: AmpC hydrolysis of nitrocefin, absorbance 480 nm, 0.01% Triton; activity change, negative = inhibition: at 114 µM (top of the series).
In short: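 20 mM phosphate pH 7.0 + 0.01% (detergent screen) or 0.0001% Triton X-100; 5.3 nM AmpC reagent; cpd preinc 15 min RT; nitrocefin (800 uM stock) to start; A480 q20 s × 4 min; Activity was normalised to no-enzyme and no-compound control wells.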
Also: nearly all actives have a fitted effect of over 25% in size.
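For activity change, negative = inhibition in this document: 0% = no-compound wells and -100% = no-enzyme wells.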
Potency is read from the fitted curve at half-maximal effect; tags tell the direction and shape of the fitted curve.

Sequence of UniProt P00811 (P00811 whole entry, looked up): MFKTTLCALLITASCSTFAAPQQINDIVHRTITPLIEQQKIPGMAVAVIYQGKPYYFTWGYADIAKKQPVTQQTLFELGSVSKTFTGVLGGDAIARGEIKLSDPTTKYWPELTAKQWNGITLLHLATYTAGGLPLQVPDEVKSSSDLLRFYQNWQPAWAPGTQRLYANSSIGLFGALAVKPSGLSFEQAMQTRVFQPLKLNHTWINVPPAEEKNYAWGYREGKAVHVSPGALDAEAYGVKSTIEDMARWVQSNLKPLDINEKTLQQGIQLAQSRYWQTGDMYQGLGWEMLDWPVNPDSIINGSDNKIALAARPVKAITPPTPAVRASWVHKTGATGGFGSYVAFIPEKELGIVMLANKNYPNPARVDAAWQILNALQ

Compound	Potency	activity change, negative = inhibition
CC(C)(C)N1C(=O)c2ccc(C(=O)Nc3nccs3)cc2C1=O	inconclusive [inhibitor, full curve, poor fit]	–
COc1ccc(C2OC(=O)CC2C(=O)NCc2ccc(Cl)cc2)cc1OC (configuration not stated)	–	inactive: -4.21%
O=C(COc1ccc(Br)cc1Br)NNC(=O)c1cccs1	–	inactive: -4.34%
NC(=O)N/N=C/c1c(F)cccc1F	inconclusive [inhibitor, partial curve, poor fit]	–
COC(=O)Cc1ccc2oc(-c3cccnc3)nc2c1	inconclusive [inhibitor, partial curve, poor fit]	–
O=C(NCCCN1CCCCC1)c1ccc2c(c1)NC(=O)C(N1CCOCC1)S2 (configuration not stated)	inconclusive [inhibitor, single point]	–
C=CCSc1nc(N)c(C#N)c(-c2ccccc2)c1C#N	–	inactive: -15.4%
COc1ccc(/C(O)=C2\C(=O)C(=O)N(Cc3ccco3)C2c2ccc(OC)cc2OC)cc1 (configuration not stated)	inconclusive [inhibitor, full curve, poor fit]	–
Cn1c(=O)c2c3c(sc2n2c(SCC(=O)c4ccccc4)nnc12)COC(C)(C)C3	inconclusive [inhibitor, full curve, poor fit]	–
COc1ccc(NS(=O)(=O)c2cc(NC(=O)C3CCCO3)ccc2N2CCCCC2)cc1 (configuration not stated)	–	inactive: -6.67%
CC1CCN(S(=O)(=O)c2ccc3c(c2)N(CC(=O)NCCCN2CCCCC2C)C(=O)CS3)CC1 (configuration not stated)	inconclusive [inhibitor, single point]	–
C=C(C)COc1ccc2c(C)c(CC(=O)N3C[C@H]4C[C@@H](C3)c3cccc(=O)n3C4)c(=O)oc2c1	inconclusive [inhibitor, partial curve]	–
Cc1ccc(-c2noc(CNc3ccccc3)n2)cc1	inconclusive [inhibitor, partial curve]	–
CC(C)N=C(NC#N)SCc1ccccc1F	inconclusive [inhibitor, full curve, poor fit]	–
CCCN(Cc1nnc(-c2ccccc2Cl)o1)C(=O)c1ccc(C)c(S(=O)(=O)N2CCOCC2)c1	inconclusive [inhibitor, full curve, poor fit]	–
CCn1c(=O)c2cc(C(=O)N3CCN(c4cccc(Cl)c4)CC3)sc2c2ccccc21	–	inactive: 10.7%
CCc1ccc2[nH]c3nc(N/N=C/c4ccc(O)cc4O)nnc3c2c1	inconclusive [inhibitor, full curve, poor fit]	–
COc1ccccc1C1CC(c2cccs2)=Nc2ccccc2S1 (configuration not stated)	inconclusive [inhibitor, single point]	–
Cc1c(Cl)cccc1N(CC(=O)O)S(C)(=O)=O	inconclusive [inhibitor, full curve]	–
COc1cc(Cl)ccc1OCc1cc(C(=O)NCC(C)c2ccccc2)no1 (configuration not stated)	–	inactive: -12.2%
O=C(CCc1nnc2ccc(N3CCCC3)nn12)Nc1ccc(F)c(F)c1	inconclusive [inhibitor, full curve, poor fit]	–

Compound	Potency	activity change, negative = inhibition
O=C(CCCCn1c(=O)c2ccccc2n(CC(=O)NC2CCCC2)c1=O)NC1CCCC1	–	inactive: -2.88%
Cc1nn(-c2ccccc2)c(OC(=O)c2ccccc2F)c1S(=O)(=O)c1ccccc1	–	inactive: -6.3%
OC(COCc1ccc(Cl)cc1)CN1CCc2ccccc2C1 (configuration not stated)	inconclusive [inhibitor, partial curve, poor fit]	–
Cc1nn(CCCC(=O)NCc2ccccc2Cl)c(=O)c2nccn12	inconclusive [inhibitor, partial curve, poor fit]	–
C/C(=N\NS(=O)(=O)c1ccccc1)c1ccc2c(c1)OCCO2	inconclusive [inhibitor, partial curve, poor fit]	–
O=C(NCC1COc2ccccc2O1)C1CCCN(S(=O)(=O)c2cnc[nH]2)C1 (configuration not stated)	inconclusive [inhibitor, full curve, poor fit]	–
Cc1ccc(S(=O)(=O)N2CCC(C(=O)C3C(=O)CC(C)(C)CC3=O)CC2)cc1	–	inactive: -7.61%
CCOc1ccc(N(CC(=O)NC(C)(C)C)C(=O)c2ccco2)cc1	inconclusive [inhibitor, partial curve, poor fit]	–
CCN(CC)c1ccc(Nc2cc3n(c(=O)n2)CCc2cc(OC)c(OC)cc2-3)cc1	–	inactive: -0.082%
CCOC(=O)Cn1nc(-c2ccc(C)cc2)c2ccccc2c1=O	inconclusive [inhibitor, full curve, poor fit]	–
O=C(CN1CCC(O)(c2ccc3c(c2)OCO3)CC1)OC1CCCCC1	inconclusive [inhibitor, partial curve]	–
COc1ccc2c(c1OC)C[N+]1([O-])CCc3cc4c(cc3C1C2)OCO4 (configuration not stated)	–	inactive: -6.77%
COc1cc(/C=N/N=C2/C(=O)Nc3ccccc32)cc(OC)c1O	inconclusive [inhibitor, partial curve, poor fit]	–
Cc1ccc(NC(=O)N2CCC(C(=O)NCc3ccc(F)cc3)CC2)cc1	inconclusive [inhibitor, full curve, poor fit]	–
N#CCCN1CCN(CCC#N)CC1	inconclusive [inhibitor, full curve, poor fit]	–
C/C(CC(c1ccccc1)c1c(O)c2ccccc2oc1=O)=N\NC(N)=S (configuration not stated)	inconclusive [inhibitor, single point]	–
CCN(CC)CC(=O)N1c2ccccc2Sc2ccc(Cl)cc21	inconclusive [inhibitor, single point]	–
Cc1ccc(CNC(=O)c2cc3c(=O)n(C)c4ccccc4c3n2C)cc1	inconclusive [inhibitor, partial curve, poor fit]	–
CCCCCCNS(=O)(=O)c1ccc(OC)c(OC)c1	inconclusive [inhibitor, single point]	–
Cc1cc(Sc2nc(N)ncc2[N+](=O)[O-])ncn1	–	inactive: 0.36%
Cc1ccc(C)c(N2CCN(CC3CCCCC3)CC2)c1	inconclusive [inhibitor, full curve, poor fit]	–
